Experimental data from article PMC8571081.
No constants are given. Whether binding was seen depends on the method and setting. For some of these results: In cells and extracts the contact can be indirect. Some results given as binding are weak or reduced against the parent protein; the word gives no strength. For some of these results: Where a sequence is shown, tags or fusion partners need not be part of it.

Chains of the proteins cited; added tags and fusions are not shown. Lines headed by an entry give the natural chain unless they say otherwise; changes in a name come on top. A line that says so, or that is headed by a name, gives the form on record, which may keep a tag or linker. Residues count along the entry.
human p40, FLAG-tagged (FLAG-hp40) (P29460, residues 23-328): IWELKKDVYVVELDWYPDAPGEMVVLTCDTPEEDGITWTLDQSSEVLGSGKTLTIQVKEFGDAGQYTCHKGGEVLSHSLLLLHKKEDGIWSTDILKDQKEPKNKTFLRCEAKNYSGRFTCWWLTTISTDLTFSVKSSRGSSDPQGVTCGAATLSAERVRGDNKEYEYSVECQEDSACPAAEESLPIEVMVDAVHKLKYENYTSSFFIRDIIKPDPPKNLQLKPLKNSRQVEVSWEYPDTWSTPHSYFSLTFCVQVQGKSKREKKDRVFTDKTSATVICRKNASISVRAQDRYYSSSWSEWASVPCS
human p40 D36K/W37K/Y38K, FLAG-tagged (P29460, form named): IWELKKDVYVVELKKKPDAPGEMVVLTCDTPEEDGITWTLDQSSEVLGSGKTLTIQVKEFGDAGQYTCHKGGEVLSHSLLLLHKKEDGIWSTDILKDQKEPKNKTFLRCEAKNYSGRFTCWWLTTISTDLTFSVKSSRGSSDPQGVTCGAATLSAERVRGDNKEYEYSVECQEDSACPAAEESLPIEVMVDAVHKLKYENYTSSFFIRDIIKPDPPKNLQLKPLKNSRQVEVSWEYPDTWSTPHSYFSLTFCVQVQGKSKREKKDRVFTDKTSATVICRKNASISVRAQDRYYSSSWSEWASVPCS
UniProt Q5VWK5, residues 24-629: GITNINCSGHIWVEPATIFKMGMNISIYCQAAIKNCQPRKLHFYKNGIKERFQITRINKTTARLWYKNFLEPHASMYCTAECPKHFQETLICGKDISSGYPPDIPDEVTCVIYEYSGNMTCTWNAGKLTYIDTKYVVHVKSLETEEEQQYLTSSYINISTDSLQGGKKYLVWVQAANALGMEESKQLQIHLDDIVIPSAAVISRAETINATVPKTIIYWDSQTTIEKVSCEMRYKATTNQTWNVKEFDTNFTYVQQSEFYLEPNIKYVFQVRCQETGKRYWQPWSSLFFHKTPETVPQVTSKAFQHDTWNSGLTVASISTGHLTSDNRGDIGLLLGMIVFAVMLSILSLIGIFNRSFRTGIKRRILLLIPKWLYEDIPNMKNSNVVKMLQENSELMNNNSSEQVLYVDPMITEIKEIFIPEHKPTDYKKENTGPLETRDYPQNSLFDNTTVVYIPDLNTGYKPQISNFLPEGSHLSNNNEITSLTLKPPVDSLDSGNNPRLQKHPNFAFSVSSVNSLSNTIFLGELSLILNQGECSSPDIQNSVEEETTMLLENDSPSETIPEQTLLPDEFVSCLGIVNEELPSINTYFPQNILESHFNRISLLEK

T1: FLAG-mp19 coexpressed with mp40D36K/W37K/T38K (murine) (UniProt Q9EQ14+P43432)
T1 sequence 1: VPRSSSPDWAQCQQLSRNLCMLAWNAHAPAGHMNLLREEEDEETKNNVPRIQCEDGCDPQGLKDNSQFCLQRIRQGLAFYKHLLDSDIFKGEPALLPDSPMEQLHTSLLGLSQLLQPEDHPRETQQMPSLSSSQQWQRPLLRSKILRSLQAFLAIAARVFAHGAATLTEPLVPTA
T1 sequence 2: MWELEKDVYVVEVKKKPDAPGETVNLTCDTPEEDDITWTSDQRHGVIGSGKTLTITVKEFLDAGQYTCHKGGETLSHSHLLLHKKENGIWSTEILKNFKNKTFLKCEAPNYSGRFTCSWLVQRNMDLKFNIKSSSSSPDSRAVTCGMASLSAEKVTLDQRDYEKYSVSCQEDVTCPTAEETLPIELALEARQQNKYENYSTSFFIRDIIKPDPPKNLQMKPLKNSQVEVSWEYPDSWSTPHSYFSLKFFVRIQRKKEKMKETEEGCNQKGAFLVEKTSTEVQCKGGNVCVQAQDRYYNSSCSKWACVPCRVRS

T2: murine IL-23 from FLAG-mp19 coexpressed with mp40 (murine) (UniProt Q9EQ14+P43432)
T2 sequence 1: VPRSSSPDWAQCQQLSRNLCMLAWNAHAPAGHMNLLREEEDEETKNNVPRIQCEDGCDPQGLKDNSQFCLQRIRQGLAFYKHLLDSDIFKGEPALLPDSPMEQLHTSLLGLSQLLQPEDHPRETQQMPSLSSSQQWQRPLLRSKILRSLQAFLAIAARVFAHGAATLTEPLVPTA
T2 sequence 2: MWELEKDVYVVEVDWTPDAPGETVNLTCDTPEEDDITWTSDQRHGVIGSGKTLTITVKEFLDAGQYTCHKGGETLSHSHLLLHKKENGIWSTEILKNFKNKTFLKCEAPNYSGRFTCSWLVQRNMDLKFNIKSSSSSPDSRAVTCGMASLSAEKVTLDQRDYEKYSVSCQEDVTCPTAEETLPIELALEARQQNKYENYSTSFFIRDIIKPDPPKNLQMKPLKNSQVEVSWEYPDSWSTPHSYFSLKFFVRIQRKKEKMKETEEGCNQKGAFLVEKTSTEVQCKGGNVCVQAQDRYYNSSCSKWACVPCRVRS

T3: murine p40 D36K/W37K/T38K, FLAG-tagged (murine) (UniProt P43432)
T3 sequence: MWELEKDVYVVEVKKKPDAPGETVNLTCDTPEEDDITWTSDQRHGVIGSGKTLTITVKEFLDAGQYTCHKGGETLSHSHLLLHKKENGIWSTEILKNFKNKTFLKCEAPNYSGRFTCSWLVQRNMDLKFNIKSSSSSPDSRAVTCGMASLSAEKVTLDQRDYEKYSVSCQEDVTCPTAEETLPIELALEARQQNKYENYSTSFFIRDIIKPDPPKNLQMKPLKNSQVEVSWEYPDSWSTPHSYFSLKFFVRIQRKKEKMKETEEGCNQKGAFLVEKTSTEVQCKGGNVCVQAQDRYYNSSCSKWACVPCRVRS

T4: murine p40, FLAG-tagged (FLAG-mp40) (murine) (UniProt P43432)
T4 sequence: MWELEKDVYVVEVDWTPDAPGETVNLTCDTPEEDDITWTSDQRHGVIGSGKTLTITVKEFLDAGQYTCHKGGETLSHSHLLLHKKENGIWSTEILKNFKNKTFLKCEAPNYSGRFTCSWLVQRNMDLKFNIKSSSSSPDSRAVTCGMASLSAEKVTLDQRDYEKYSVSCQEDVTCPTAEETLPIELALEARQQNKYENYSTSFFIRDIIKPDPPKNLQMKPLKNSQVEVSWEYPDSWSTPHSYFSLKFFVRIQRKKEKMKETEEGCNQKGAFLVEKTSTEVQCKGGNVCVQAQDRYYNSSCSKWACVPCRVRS

T5: murine p19, FLAG-tagged (FLAG-mp19) (murine) (UniProt Q9EQ14)
T5 sequence: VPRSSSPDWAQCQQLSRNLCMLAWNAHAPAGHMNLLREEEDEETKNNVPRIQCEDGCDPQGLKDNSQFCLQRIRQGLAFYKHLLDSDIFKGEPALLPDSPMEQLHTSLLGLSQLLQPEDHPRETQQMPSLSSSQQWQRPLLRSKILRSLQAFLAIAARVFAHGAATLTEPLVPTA


What was measured:
[1] = target: human p40 D36K/W37K/Y38K, FLAG-tagged (human) (UniProt P29460); experiment: co-IP; lysates of transiently transfected HEK293T cells (50 mM Tris-HCl pH 7.5, 1 mM EDTA, 150 mM NaCl, 1% Triton X-100) with FLAG-tagged cytokine mixed with lysates with full-length receptor; ANTI-FLAG M2 affinity gel overnight at 4 °C; Western blot
[2] = target: human p40, FLAG-tagged (FLAG-hp40) (human) (UniProt P29460); experiment: as above
[3] = target: T1, FLAG-mp19 coexpressed with mp40D36K/W37K/T38K (murine); experiment: as above
[4] = target: T2, murine IL-23 from FLAG-mp19 coexpressed with mp40 (murine); experiment: as above
[5] = target: T3, murine p40 D36K/W37K/T38K, FLAG-tagged (murine); experiment: as above
[6] = target: T4, murine p40, FLAG-tagged (FLAG-mp40) (murine); experiment: as above
[7] = target: T5, murine p19, FLAG-tagged (FLAG-mp19) (murine); experiment: co-IP; FLAG-mp19 coexpressed with the mp40 variant in the same cells; ANTI-FLAG M2 affinity gel; the legend's title tells the p19-p40 interaction, the panel on which it rests is not named
[8] = target: murine p40 (mp40) secreted from CHO-K1 cells (murine) (UniProt P43432); experiment: (non-)reducing SDS-PAGE with Western blot; 20 μl conditioned supernatant of transiently transfected CHO-K1 separated under (non-)reducing conditions, mp40-specific antibody; covalently linked homodimer p80
[9] = target: murine p40 D36K/W37K/T38K secreted from CHO-K1 cells (murine) (UniProt P43432); experiment: as above

| Molecule | binding [3] | binding [4] | binding [5] | binding [6] | further results |
| --- | --- | --- | --- | --- | --- |
| human IL-23 receptor (hIL-23R) (from UniProt Q5VWK5 24-629) |  |  |  |  | binding [1]: no binding; binding [2]: no binding |
| murine IL-12 receptor β1 (mIL-12Rβ1), full-length (receptor, UniProt Q60837 20-738) QLGASGPGDGCCVEKTSFPEGASGSPLGPRNLSCYRVSKTDYECSWQYDGPEDNVSHVLWCCFVPPNHTHTGQERCRYFSSGPDRTVQFWEQDGIPVLSKVNFWVESRLGNRTMKSQKISQYLYNWTKTTPPLGHIKVSQSHRQLRMDWNVSEEAGAEVQFRRRMPTTNWTLGDCGPQVNSGSGVLGDIRGSMSESCLCPSENMAQEIQIRRRRRLSSGAPGGPWSDWSMPVCVPPEVLPQAKIKFLVEPLNQGGRRRLTMQGQSPQLAVPEGCRGRPGAQVKKHLVLVRMLSCRCQAQTSKTVPLGKKLNLSGATYDLNVLAKTRFGRSTIQKWHLPAQELTETRALNVSVGGNMTSMQWAAQAPGTTYCLEWQPWFQHRNHTHCTLIVPEEEDPAKMVTHSWSSKPTLEQEECYRITVFASKNPKNPMLWATVLSSYYFGGNASRAGTPRHVSVRNQTGDSVSVEWTASQLSTCPGVLTQYVVRCEAEDGAWESEWLVPPTKTQVTLDGLRSRVMYKVQVRADTARLPGAWSHPQRFSFEVQISRLSIIFASLGSFASVLLVGSLGYIGLNRAAWHLCPPLPTPCGSTAVEFPGSQGKQAWQWCNPEDFPEVLYPRDALVVEMPGDRGDGTESPQAAPECALDTRRPLETQRQRQVQALSEARRLGLAREDCPRGDLAHVTLPLLLGGVTQGASVLDDLWRTHKTAEPGPPTLGQEA | no binding | binds | no binding | binds |  |
| murine IL-23 receptor (mIL-23R), full-length (receptor, UniProt Q8K4B4 24-644) GITSINCSGDMWVEPGEIFQMGMNVSIYCQEALKHCRPRNLYFYKNGFKEEFDITRINRTTARIWYKGFSEPHAYMHCTAECPGHFQETLICGKDISSGHPPDAPSNLTCVIYEYSGNMTCTWNTGKPTYIDTKYIVHVKSLETEEEQQYLASSYVKISTDSLQGSRKYLVWVQAVNSLGMENSQQLHVHLDDIVIPSASIISRAETTNDTVPKTIVYWKSKTMIEKVFCEMRYKTTTNQTWSVKEFDANFTYVQQSEFYLEPDSKYVFQVRCQETGKRNWQPWSSPFVHQTSQETGKRNWQPWSSPFVHQTSQTVSQVTAKSSHEPQKMEMLSATIFRGHPASGNHQDIGLLSGMVFLAIMLPIFSLIGIFNRSLRIGIKRKVLLMIPKWLYEDIPNMENSNVAKLLQEKSVFENDNASEQALYVDPVLTEISEISPLEHKPTDYKEERLTGLLETRDCPLGMLSTSSSVVYIPDLNTGYKPQVSNVPPGGNLFINRDERDPTSLETTDDHFARLKTYPNFQFSASSMALLNKTLILDELCLVLNQGEFNSLDIKNSRQEETSIVLQSDSPSETIPAQTLLSDEFVSCLAIGNEDLPSINSYFPQNVLESHFSRISLFQK | binds | binds | no binding | no binding |  |
| murine p40 with D36K/W37K/T38K substitutions, coexpressed with FLAG-mp19 (protein, UniProt P43432 23-335) MWELEKDVYVVEVKKKPDAPGETVNLTCDTPEEDDITWTSDQRHGVIGSGKTLTITVKEFLDAGQYTCHKGGETLSHSHLLLHKKENGIWSTEILKNFKNKTFLKCEAPNYSGRFTCSWLVQRNMDLKFNIKSSSSSPDSRAVTCGMASLSAEKVTLDQRDYEKYSVSCQEDVTCPTAEETLPIELALEARQQNKYENYSTSFFIRDIIKPDPPKNLQMKPLKNSQVEVSWEYPDSWSTPHSYFSLKFFVRIQRKKEKMKETEEGCNQKGAFLVEKTSTEVQCKGGNVCVQAQDRYYNSSCSKWACVPCRVRS |  |  |  |  | binding [7]: binds |
| murine p40 (mp40) secreted from CHO-K1 cells (protein, UniProt P43432 23-335) MWELEKDVYVVEVDWTPDAPGETVNLTCDTPEEDDITWTSDQRHGVIGSGKTLTITVKEFLDAGQYTCHKGGETLSHSHLLLHKKENGIWSTEILKNFKNKTFLKCEAPNYSGRFTCSWLVQRNMDLKFNIKSSSSSPDSRAVTCGMASLSAEKVTLDQRDYEKYSVSCQEDVTCPTAEETLPIELALEARQQNKYENYSTSFFIRDIIKPDPPKNLQMKPLKNSQVEVSWEYPDSWSTPHSYFSLKFFVRIQRKKEKMKETEEGCNQKGAFLVEKTSTEVQCKGGNVCVQAQDRYYNSSCSKWACVPCRVRS |  |  |  |  | binding [8]: binds |
| murine p40 D36K/W37K/T38K secreted from CHO-K1 cells (protein, UniProt P43432 23-335) MWELEKDVYVVEVKKKPDAPGETVNLTCDTPEEDDITWTSDQRHGVIGSGKTLTITVKEFLDAGQYTCHKGGETLSHSHLLLHKKENGIWSTEILKNFKNKTFLKCEAPNYSGRFTCSWLVQRNMDLKFNIKSSSSSPDSRAVTCGMASLSAEKVTLDQRDYEKYSVSCQEDVTCPTAEETLPIELALEARQQNKYENYSTSFFIRDIIKPDPPKNLQMKPLKNSQVEVSWEYPDSWSTPHSYFSLKFFVRIQRKKEKMKETEEGCNQKGAFLVEKTSTEVQCKGGNVCVQAQDRYYNSSCSKWACVPCRVRS |  |  |  |  | binding [9]: binds |
